First the molecules themselves.
B1: LINE1-full (parent)
chain: UACGUAGGUGGUUUUCCCCUGAUAGUGCUAAGGGGGCCUGGAAGUUUGGACUGGGCAGAGCUCAACACAGCGUGGCAAAGUGGCUGUGGCUAGACUGCCUCUCUGGAUUCCUCGUCACUCAGCAGGGCAUCUCUGAGAGAAAUGCC

The source gives no read counts; variants with many changes may rest on few reads.

Variants of B1 are the subject of the data set. The data set is described as follows: self-cleavage, relative activity (ratio to wild type); higher = more cleavage; in vitro, sequencing; the parent is a self-cleaving ribozyme.
In the case of A24G U73A C103U, the self-cleavage stood at 0.87.
Regarding A30G A65U A136G, the self-cleavage was found to be 0.5.
For U5C U14C A43G A79G the value was 1.19; for U52C U108C A124G, 2.3; for U87A U104A A129U, 0.1.
As to U9A A65G U87A A121G, the self-cleavage came to 0.11.
For the variant U46A A69G A94G U130C, the self-cleavage is 0.
For G49U U96A A138G the value was 0.05; for U39C U100C G106C A138U, 2.23.
Take U13C U26A A138G: the self-cleavage was 2.65.
In the case of U14C G34U U45A C61A U109C U132A it was 0.04; in that of C37U G75A A78G U100A, 0.04; in that of U1C C63U A79G G114A U119A, 0.02.
For U115C U134C U143A the value was 1.62; for U45C U100A A138G, 0.93.
On to A2G A6G U73G, for which the self-cleavage stood at 0.55.
On to G32A G72A U100C A117G U119C, for which the self-cleavage turned out to be 1.7.
Take A77U A92G U104A U108C U109C: the self-cleavage turned out to be 0.
For C61G A79C C90U the value was 0.05.
With A69C U109C A138U, the self-cleavage is 0.
In the case of A67G A77U A124C it was 0.67; in that of U26C A57G A79G A142G, 1.31.
For U9A U47C U104C the value was 0.82; for A64U U87A U96C C113A, 0.04; for G74A G126A G135A, 0.9.
With U9C G11U A65G A77G A142U, the self-cleavage was 0.22.
Take U20A U87A A94U U100C A117G: the self-cleavage was 0.13.
In the case of G105A U119G A121G it was 2.89.
For G32C U47C U104C A138G A142C, the self-cleavage turned out to be 1.41.
Turning to C71U U100A C113A G114A A124G U143C, the self-cleavage is 0.08.
In the case of G72A U87C A124G it was 0.05; in that of G32U U39A G41A G97U, 0.08.
For U52C C113A A140G the value was 1.37; for U45C U73A A107G U130A, 1.79.
With A22G A42G A124U, the self-cleavage turned out to be 1.31.
For U5G G36A A79G C84A A136G, the self-cleavage was 0.15.
On to U26A A59U U119C U143C, for which the self-cleavage was found to be 0.46.
For G25A A94U U96A the value was 0.05; for U20A G49U U62C, 0.01; for A31G A67U U102C A138U, 0.18.
Take C111A A136G A138U: the self-cleavage was 1.42.
For A31U U52G U73A the value was 0.98; for U20G A22G U104A, 0.92.
For G106A A141G A142U the value was 1.1.
For U1C U26G U132C the value was 2.24.
Regarding U14C A59G U87G, the self-cleavage was 0.21.
For U12C U15C A43G the value was 1.04; for U47G U62C A69G C120A, 0.06; for U14C A24G A59G U73A, 0.32.
As for U9C G40A A94G, the self-cleavage is 0.4.
As for G7U U15C G33U C68A, the self-cleavage was 0.05.
On to A64U C90U U109A, for which the self-cleavage worked out at 0.01.
For U45A A57G A77U A142G the value was 0.63.
For the variant A2G U130C A136G A142G, the self-cleavage is 0.59.
For G60U G106A G122A the value was 0.03.
For U87C U134A U143C the value was 0.18; for U20G U39A A107U A117G A136G, 1.77; for A24G U62C U96C U100C, 0.
For the variant U14C U87A A94U U109A, the self-cleavage amounted to 0.17.
For the variant U20A A22G U23C A67U A77U C99U, the self-cleavage worked out at 0.24.
With U14G U29C A59G A136G, the self-cleavage came to 0.
For A57U U100A A121G the value was 0.
In the case of U14C G41A U102C A142G it was 1.01; in that of C3U U12A U73C G97A A136C, 0.15.
U29C U85C U102C A142G: the self-cleavage was found to be 0.25.
With A59C A78G U143C, the self-cleavage turned out to be 1.06.
As to U5C U52A G74A A138G, the self-cleavage amounted to 0.
Take C95A U108C A140U: the self-cleavage turned out to be 0.06.
In the case of U20A U45C A117U it was 1.26.
For U14C C19U A43U U73C A77U, the self-cleavage came out at 0.8.
In the case of U108A U115C A142G it was 2.02; in that of A64G A117G A129G, 0.
In the case of A77G U81C U104C it was 1.84; in that of U13C U96C A124G, 0; in that of C3U A50G A67U C113U A121U U134C, 0.07.
For A79G U91A C118A A141G the value was 0.42; for U12C A77G U102C, 2.4; for U20A U62C U96C, 0.
Consider U13C A57U A59G A121G C128A U143C, for which the self-cleavage was found to be 0.17.
For U12A A22C U39C the value was 1.06; for U15A U39C U108A, 0.69; for A6G A42G U45A A124G, 1.25.
On to U23A U47G A65G U132C, for which the self-cleavage worked out at 0.17.
For A50G A69U A141G the value was 0.11; for U15A U45C U62A A64G A77U, 0.11.
With U20G A50G G80U, the self-cleavage was found to be 1.09.
In the case of G27A U62A U87A U130A U134A it was 0.05.
For A6U U14C U46C A67U A69G U87A the value was 1.28; for U15C U29C A64C U73C, 0.
For U1C G32A C51U A69G U85C U109A the value was 0.97; for U15C C51U U96A U112C A136G, 0.08.
Regarding G82A A136G A140G, the self-cleavage was determined as 1.88.
For U14C U81C U130C the value was 2.21.
In the case of A2G U9G A59G U108C it was 0; in that of A24G U73A U85C U115A, 0.3; in that of U23C U26C A138G, 1.15.
In the case of U73C G74A A77G it was 2.11; in that of U13C U14C A136G, 1.7.
Regarding A2G U39C G40A A67C, the self-cleavage was determined as 0.19.
For U5C A57G U134A the value was 0.44; for U12C U29C A59G, 0.66.
For A57G U85G A141G the value was 0.14; for U47A U96A A136G, 0.05; for A30G U108C U130C, 0.46.
For U13C A43C A129C the value was 0; for G7A A22G A77G, 2.32; for A30U U39C U100C, 1.91.
For U9C A59G A117U, the self-cleavage is 0.
For C56U A57U A65G U109A the value was 0.07; for A6G A57G A121C U132C, 0; for G35A U108C U109C A124G A136G, 0.
For U62C U73C C90U U112C the value was 0; for U52C U87C U100A, 0; for G7A A78U U100C, 0.69.
For U15C A30U A67G A79G the value was 0.61.
With U29C G114A U119C, the self-cleavage is 0.
In the case of A2G U26C G137U it was 1.74; in that of U26C C37U A79G, 1.19.
U62C U96A U102C A107C: the self-cleavage is 0.
For U13C A31G A65C C120U the value was 0.1; for A65G A78G A138G, 0.07; for U14C C120U U132C, 1.33.
For A22G A30G A50U A59G G114U the value was 0.36; for U46A A107G C113U, 1.62; for U20G A65G U108C A129G, 2.04.
In the case of A64G A77G A129G, the self-cleavage stood at 0.
As to U23C U73A U100C, the self-cleavage was 1.41.
Take U85A C95U U134A: the self-cleavage came out at 0.11.
In the case of U15A U62C U104C it was 0.07; in that of U20G A117G A124G, 0.31; in that of U62A U115C A129G, 0.07.
With U47A A78G A94G A141G, the self-cleavage worked out at 0.13.
For U1A U12C U130C, the self-cleavage was 1.67.
For U23C U26C U119C the value was 1.73.
In the case of U62A A92G A140G it was 0.06.
U12C U14C U91A G114A A129G U132C A141G: the self-cleavage came to 0.74.
Regarding U13C G48U U104A, the self-cleavage amounted to 1.54.
For A77G C84U A107U A136U the value was 0.36; for U13C U104G A121U, 0.66; for A22G A64G A69G U91A A124G, 0.
U12C A64G A79U: the self-cleavage came to 0.55.
For U14C U39C A59G A140G the value was 0.
Regarding U14C U20C U96C C103A U115C, the self-cleavage amounted to 0.
In the case of U39G U46C U91A it was 1.54; in that of U13C U23A G44U A77G U115A, 2.16; in that of C118U A121C U134G, 2.11.
As for A2G A22G U62A U102C, the self-cleavage stood at 0.
Take U1C U15C U115C A138G: the self-cleavage was 1.
For U9G A42U C84U the value was 0.06.
As for U39A U62C A107G, the self-cleavage was 0.16.
For U13C A50U U62C U96C U119A A138G the value was 0; for U1C U15C G114A, 1.06.
As to G7U A30G C90U U108C, the self-cleavage is 0.04.
For U85C A92U A94U G139A the value was 0.16.
For U23A G35A U73A the value was 1.02.
In the case of C3A U5C U9A A42G U46G it was 0.32; in that of U1C U14C A22G G25U U96C U112A, 0.47.
In the case of A69G A107G U109A, the self-cleavage came to 0.
As to A50G A77U U143A, the self-cleavage is 0.5.
As to A24G U52A U100C, the self-cleavage amounted to 2.69.
For U14C A42G A50U U104C C113U the value was 0.22.
For A6C U39G U85C U134C A140U the value was 0.44.
In the case of U9C U45C A50G it was 2.09; in that of G4A U14C A31U U81C, 0; in that of U13C A57G C63U A67G, 0.27.
As for G55A U73C U87A A94U U115A, the self-cleavage was 0.02.
Regarding U15C C51A G72U U96C A138U, the self-cleavage came out at 0.16.

Source of the values: the RNAGym collection of RNA variant scans (doi:10.7554/elife.90254).
